Laboratory results from article PMC9800311.
Where two headings read alike, the source gives them in different places. No constants are given. Whether binding was seen depends on the method and setting. In cells and extracts the contact can be indirect. Some entries that bind do so weakly or less than the wild type. For part of these data: Tags and fused reporters may be left off the sequences shown. Values belong to the molecule of their own block, whether it stands above or below them.

By UniProt entry, the sequences of proteins in these tests, tags left out. Where a name states a change or a piece, a line headed by the entry shows the natural chain unless it says otherwise.
UniProt P60881: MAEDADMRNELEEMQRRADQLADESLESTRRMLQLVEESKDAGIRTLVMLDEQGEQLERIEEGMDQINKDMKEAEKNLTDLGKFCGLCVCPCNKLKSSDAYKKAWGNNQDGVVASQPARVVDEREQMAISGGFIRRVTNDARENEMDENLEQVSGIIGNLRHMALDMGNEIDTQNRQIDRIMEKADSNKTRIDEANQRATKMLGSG
UniProt Q80TN5: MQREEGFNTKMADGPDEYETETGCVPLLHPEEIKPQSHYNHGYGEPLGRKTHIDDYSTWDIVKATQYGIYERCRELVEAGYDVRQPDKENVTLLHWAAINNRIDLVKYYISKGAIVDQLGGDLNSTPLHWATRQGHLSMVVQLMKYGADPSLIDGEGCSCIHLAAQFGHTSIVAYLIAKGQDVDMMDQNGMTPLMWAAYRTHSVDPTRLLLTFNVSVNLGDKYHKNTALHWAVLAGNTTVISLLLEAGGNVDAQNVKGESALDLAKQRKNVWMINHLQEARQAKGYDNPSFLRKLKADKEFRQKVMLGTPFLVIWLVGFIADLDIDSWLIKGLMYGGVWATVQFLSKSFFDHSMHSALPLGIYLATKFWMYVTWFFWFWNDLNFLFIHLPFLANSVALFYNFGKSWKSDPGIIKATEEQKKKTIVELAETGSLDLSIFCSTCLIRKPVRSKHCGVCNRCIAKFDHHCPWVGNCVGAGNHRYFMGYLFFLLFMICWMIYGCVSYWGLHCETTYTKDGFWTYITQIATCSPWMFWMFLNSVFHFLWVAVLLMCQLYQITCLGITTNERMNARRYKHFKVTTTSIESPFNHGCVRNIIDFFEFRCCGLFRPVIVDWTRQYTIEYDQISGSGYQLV

Tests used:
Assay in all cases: co-IP; EGFP-tagged substrate protein and HA-tagged zDHHC enzyme cotransfected in HEK293T; lysate (PBS, 0.5% Triton X-100, protease inhibitors) incubated with GFP-Trap beads at least 1 h at 4 °C, washed in PBS; coprecipitated HA-zDHHC detected by immunoblot
[1] = target: T1, EGFP-tagged Spry2 WT (Sprouty-2) (mouse) (UniProt Q9QXV8)
T1 sequence: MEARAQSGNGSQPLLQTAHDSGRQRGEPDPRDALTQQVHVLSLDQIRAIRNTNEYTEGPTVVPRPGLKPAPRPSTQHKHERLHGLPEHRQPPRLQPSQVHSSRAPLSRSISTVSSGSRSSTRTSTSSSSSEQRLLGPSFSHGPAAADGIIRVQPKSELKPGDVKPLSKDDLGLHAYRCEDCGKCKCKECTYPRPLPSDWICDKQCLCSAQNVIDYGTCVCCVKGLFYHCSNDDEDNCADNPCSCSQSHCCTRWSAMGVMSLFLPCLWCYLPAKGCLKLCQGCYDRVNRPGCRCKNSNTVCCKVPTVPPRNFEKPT

EGFP-tagged SPRED3 WT [2] = target: T2, EGFP-tagged SPRED3 WT (UniProt Q2MJR0)
T2 sequence: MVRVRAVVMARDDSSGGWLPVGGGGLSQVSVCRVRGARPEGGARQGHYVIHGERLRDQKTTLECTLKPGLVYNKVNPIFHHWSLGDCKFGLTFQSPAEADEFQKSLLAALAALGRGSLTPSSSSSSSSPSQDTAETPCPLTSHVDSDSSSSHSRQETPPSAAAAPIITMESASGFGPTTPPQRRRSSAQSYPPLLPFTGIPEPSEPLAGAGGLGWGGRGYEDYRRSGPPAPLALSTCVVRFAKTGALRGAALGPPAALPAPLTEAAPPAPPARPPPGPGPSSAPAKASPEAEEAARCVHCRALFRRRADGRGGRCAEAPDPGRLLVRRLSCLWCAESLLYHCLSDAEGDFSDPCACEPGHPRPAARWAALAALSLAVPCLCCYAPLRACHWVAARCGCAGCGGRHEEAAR

[3] = target: EGFP-tagged SNAP25 (synaptosomal-associated protein of 25 kDa) (UniProt P60881)
[4] = target: T3, EGFP-tagged SPRED3 296 to 410 (isolated SPR domain) (UniProt Q2MJR0)
T3 sequence: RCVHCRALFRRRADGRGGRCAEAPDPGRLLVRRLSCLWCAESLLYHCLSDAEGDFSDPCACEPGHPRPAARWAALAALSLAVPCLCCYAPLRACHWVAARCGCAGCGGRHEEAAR

EGFP-tagged SPRED3 WT [5] = target: T2, EGFP-tagged SPRED3 WT; remark: listed apart in the source

binding [1]: binds weakly
binding (EGFP-tagged SPRED3 WT [2]): binds
binding [3]: no binding
binding [4]: binds
Molecule: HA-tagged zDHHC17 ΔAnk (aa 287-632; ankyrin repeat domain removed) (from UniProt Q80TN5 287-632) (domain or fragment)

binding [1]: binds
binding (EGFP-tagged SPRED3 WT [2]): binds
binding [4]: binds
Molecule: HA-tagged zDHHC17 WT (aa 11-632) (from UniProt Q80TN5 11-632) (enzyme)

binding (EGFP-tagged SPRED3 WT [2]): binds
Molecule: HA-tagged zDHHC17 ΔC (aa 11-569; C-terminal end removed) (from UniProt Q80TN5 11-569) (domain or fragment)

binding (EGFP-tagged SPRED3 WT [5]): binds weakly
B1: HA-tagged zDHHC7 WT (enzyme, UniProt Q91WU6 1-308)
chain: MQPSGHRLRDIEHHPLLTDNDNYDSASSSSSETDMADRVWFIRDGCGMVCAVMTWLLVVYADFVVTFVMLLPSKDFWYSVVNGVLFNCLAVLALSSHLRTMLTDPGAVPKGNATKEYMESLQLKPGEVIYKCPKCCCIKPERAHHCSICKRCIRKMDHHCPWVNNCVGEKNQRFFVLFTMYIALSSVHALILCGLQFISCVRGQWTECSDFSPPITVILLVFLCLEGLLFFTFTAVMFGTQIHSICNDETEIERLKSEKPTWERRLRWEGMKSVFGGPPSLLWMNPFVGFRLRRLQMRTRKGGPEFSV
